From article PMC4336329 (PLoS ONE, 2015)
Screen size: about 310,000 compounds; about 14,000 (4.5%) showed an effect of 50% or more. The effect is printed as a negative number. The list shows a part of the results.

target: human ether-à-go-go-related gene (hERG) potassium channel (human, UniProt Q12809); assay: primary screen, population patch clamp on CHO cells stably expressing hERG
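Also: peak tail current of the secondary pulse compared with the same well before compound.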

human ether-à-go-go-related gene (hERG) potassium channel, sequence (Q12809 whole entry, looked up): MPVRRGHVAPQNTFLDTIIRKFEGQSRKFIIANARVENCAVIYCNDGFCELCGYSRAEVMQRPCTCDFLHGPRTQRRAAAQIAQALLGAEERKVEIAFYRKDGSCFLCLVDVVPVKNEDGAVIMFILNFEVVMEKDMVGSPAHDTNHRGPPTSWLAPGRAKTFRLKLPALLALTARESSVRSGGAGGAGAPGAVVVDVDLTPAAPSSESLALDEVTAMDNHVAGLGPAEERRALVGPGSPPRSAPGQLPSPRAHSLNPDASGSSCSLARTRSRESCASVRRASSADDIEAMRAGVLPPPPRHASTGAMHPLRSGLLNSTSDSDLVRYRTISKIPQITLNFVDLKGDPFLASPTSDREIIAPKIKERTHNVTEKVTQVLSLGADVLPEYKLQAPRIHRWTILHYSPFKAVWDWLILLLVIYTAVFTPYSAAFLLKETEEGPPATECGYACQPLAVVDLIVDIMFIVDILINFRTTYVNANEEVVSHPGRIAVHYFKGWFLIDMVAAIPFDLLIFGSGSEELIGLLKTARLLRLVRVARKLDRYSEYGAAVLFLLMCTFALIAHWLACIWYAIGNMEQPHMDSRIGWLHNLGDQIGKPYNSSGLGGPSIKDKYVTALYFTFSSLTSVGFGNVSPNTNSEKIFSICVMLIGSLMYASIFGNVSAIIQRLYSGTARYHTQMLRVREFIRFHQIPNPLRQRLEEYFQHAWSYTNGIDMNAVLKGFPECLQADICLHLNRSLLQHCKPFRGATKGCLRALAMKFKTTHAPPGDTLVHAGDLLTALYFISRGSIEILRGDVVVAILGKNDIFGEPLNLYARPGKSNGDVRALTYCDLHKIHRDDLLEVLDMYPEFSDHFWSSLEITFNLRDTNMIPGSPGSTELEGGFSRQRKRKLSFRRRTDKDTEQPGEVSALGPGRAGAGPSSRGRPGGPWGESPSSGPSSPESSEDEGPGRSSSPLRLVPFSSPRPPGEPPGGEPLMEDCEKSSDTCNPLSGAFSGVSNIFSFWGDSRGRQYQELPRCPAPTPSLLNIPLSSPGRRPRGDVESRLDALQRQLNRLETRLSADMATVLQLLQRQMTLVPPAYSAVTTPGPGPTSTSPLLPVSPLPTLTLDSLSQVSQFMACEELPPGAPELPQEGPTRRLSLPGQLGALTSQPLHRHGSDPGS

Row | SMILES | hERG current change (%, negative = inhibition) at 10uM
1 | CN1CC=C2C(C#N)=C(N)C(C#N)(C#N)C(CCc3ccccc3)C2C1 (centres unmarked) | -22.6%
2 | CCOc1c(OC)cc(C2C(C#N)=C(N)Oc3n[nH]c(-c4ccncc4)c32)cc1OC (centres unmarked) | -2.96%
3 | COc1cc(-c2noc(C)c2C#CC2(N)CCCCC2)cc(OC)c1OC | -29.7%
4 | Cc1ccc(N2C(=O)CC(c3c[nH]c4ccccc34)C2=O)cc1 (centres unmarked) | 8.01%
5 | CC1CC(C)CN(C(=O)c2ccc(C(=O)c3ccccc3)cc2)C1 (centres unmarked) | -24.3%
6 | CCC(=O)OCCn1c(=O)c2cc3c(=O)n(CCOC(=O)CC)c(=O)c3cc2c1=O | -37.7%
7 | S=C(NCCc1ccccc1)N1CCN(Cc2ccc(Cl)c(Cl)c2)CC1 | -2.53%
8 | O=C1NC2(CCCCC2)N=C1c1ccccc1 | 10.3%
9 | Cc1nn(CCCC(=O)Nc2ccc(Br)cc2F)c(C)c1[N+](=O)[O-] | -43.7%
10 | O=C(Nc1cccc(C(=O)NC2CC2)c1)c1ccc(Cl)c(S(=O)(=O)N2CCOCC2)c1 | -21.1%
11 | CCOC(=O)c1ccc(NC(=O)c2nc[nH]c2C(=O)N[C@@H](C)C(=O)OC(C)(C)C)cc1 | 17.7%
12 | O=C(CCS(=O)(=O)c1ccccc1)Nc1cccc2c1C(=O)NC2=O | 6.51%
13 | CCn1c(SCC(=O)NC2CC2)nnc1C(C)Oc1ccccc1 (centres unmarked) | 14.6%
14 | O=C(CSc1ccccn1)NCc1ccc2c(c1)OCO2 | 3.5%
15 | CC(=O)c1ccc(NC(=O)c2noc(C)c2[N+](=O)[O-])cc1 | 10.2%
16 | Cc1onc(-c2c(Cl)cccc2Cl)c1C(=O)N1CCN(c2ccccc2)CC1 | -4.8%
17 | COC(=O)c1ccc(NC(=O)CSc2nc3cccnc3n2C)cc1 | 20.4%
18 | COc1cc2nc(N(CCN(C)C)C(=O)c3ccc(S(=O)(=O)N(C)CC4CCCO4)cc3)sc2cc1OC.Cl (centres unmarked) | -9.01%
19 | O=C(COc1cccc2ccccc12)N1c2ccccc2CCc2ccccc21 | -4.67%
20 | COc1ccc(NS(=O)(=O)c2nnc(NC(=O)c3ccccc3F)s2)cc1 | 5.61%
21 | O=C(O)c1ccc(N2CCCCCC2)c(N2C(=O)c3ccccc3C2=O)c1 | 2.37%
22 | COc1ccc(NC(=O)NNC(=O)COc2ccc3cc(Br)ccc3c2)cc1 | 20.6%
23 | CC(C)C(=O)NCc1cc(-c2ccc(Cl)cc2)no1 | -4.69%
